# The list shows a part of the results.
# Legend:
# Assay in all cases: glycan array binding signal (z-score within array); higher = stronger binding
# Details in all cases: glycan notation: IUPAC condensed, linker removed
# [1] = target: GlcNAc(b1-2)[GlcNAc(b1-4)]Man(a1-3)[GlcNAc(b1-4)][GlcNAc(b1-2)Man(a1-6)]Man(b1-4)GlcNAc(b1-4)GlcNAc
# Method in brief: (§1)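 The binding signal is a Z-score computed within each array. Data were drawn from 3228 arrays in the Consortium for Functional Glycomics database, restricted to those with a known protein sequence. Scores were averaged over arrays of the same protein sequence at different concentrations or buffers, and over linkers, and negative values can be taken as non-binding.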
# [2] = target: GlcNAc(b1-2)[GlcNAc(b1-4)]Man(a1-3)[GlcNAc(b1-4)][GlcNAc(b1-2)[GlcNAc(b1-6)]Man(a1-6)]Man(b1-4)GlcNAc(b1-4)GlcNAc
# Method in brief: as §1
# [3] = target: GlcNAc(b1-2)[GlcNAc(b1-4)]Man(a1-3)[GlcNAc(b1-4)][GlcNAc(b1-2)[GlcNAc(b1-6)]Man(a1-6)]Man(b1-4)GlcNAc(b1-4)[Fuc(a1-6)]GlcNAc
# Method in brief: as §1
# [4] = target: GlcNAc(b1-2)[GlcNAc(b1-6)]Man(a1-6)[GlcNAc(b1-2)Man(a1-3)]Man(b1-4)GlcNAc(b1-4)GlcNAc
# Method in brief: as §1
# [5] = target: GlcNAc(b1-2)[GlcNAc(b1-6)]Man(a1-6)[GlcNAc(b1-2)Man(a1-3)]Man(b1-4)GlcNAc(b1-4)[Fuc(a1-6)]GlcNAc
# Method in brief: as §1
# [6] = target: GlcNAc(b1-2)[GlcNAc(b1-6)]Man(a1-6)[GlcNAc(b1-4)][GlcNAc(b1-2)Man(a1-3)]Man(b1-4)GlcNAc(b1-4)GlcNAc
# Method in brief: as §1
# GlcNAc(b1-3)Fuc = target: GlcNAc(b1-3)Fuc
# Method in brief: as §1
# GlcNAc(b1-3)Gal = target: GlcNAc(b1-3)Gal
# Method in brief: as §1
# [7] = target: GlcNAc(b1-3)Gal(b1-3)GalNAc
# Method in brief: as §1
# GlcNAc(b1-3)Gal(b1-4)Glc = target: GlcNAc(b1-3)Gal(b1-4)Glc
# Method in brief: as §1
# [8] = target: GlcNAc(b1-3)Gal(b1-4)GlcNAc
# Method in brief: as §1
# [9] = target: GlcNAc(b1-3)Gal(b1-4)GlcNAc(b1-2)Man(a1-3)[GlcNAc(b1-3)Gal(b1-4)GlcNAc(b1-2)Man(a1-6)]Man(b1-4)GlcNAc(b1-4)GlcNAc
# Method in brief: as §1
# [10] = target: GlcNAc(b1-3)Gal(b1-4)GlcNAc(b1-2)Man(a1-3)[GlcNAc(b1-3)Gal(b1-4)GlcNAc(b1-2)Man(a1-6)]Man(b1-4)GlcNAc(b1-4)[Fuc(a1-6)]GlcNAc
# Method in brief: as §1
# [11] = target: GlcNAc(b1-3)Gal(b1-4)GlcNAc(b1-2)[GlcNAc(b1-3)Gal(b1-4)GlcNAc(b1-6)]Man(a1-6)[GlcNAc(b1-3)Gal(b1-4)GlcNAc(b1-2)Man(a1-3)]Man(b1-4)GlcNAc(b1-4)GlcNAc
# Method in brief: as §1
# [12] = target: GlcNAc(b1-3)Gal(b1-4)GlcNAc(b1-3)Gal(b1-4)GlcNAc
# Method in brief: as §1
# [13] = target: GlcNAc(b1-3)Gal(b1-4)GlcNAc(b1-3)Gal(b1-4)GlcNAc(b1-2)Man(a1-3)[GlcNAc(b1-3)Gal(b1-4)GlcNAc(b1-3)Gal(b1-4)GlcNAc(b1-2)Man(a1-6)]Man(b1-4)GlcNAc(b1-4)GlcNAc
# Method in brief: as §1
# [14] = target: GlcNAc(b1-3)Gal(b1-4)GlcNAc(b1-3)Gal(b1-4)GlcNAc(b1-2)Man(a1-3)[GlcNAc(b1-3)Gal(b1-4)GlcNAc(b1-3)Gal(b1-4)GlcNAc(b1-2)Man(a1-6)]Man(b1-4)GlcNAc(b1-4)[Fuc(a1-6)]GlcNAc
# Method in brief: as §1
# [15] = target: GlcNAc(b1-3)Gal(b1-4)GlcNAc(b1-3)Gal(b1-4)GlcNAc(b1-2)[GlcNAc(b1-3)Gal(b1-4)GlcNAc(b1-3)Gal(b1-4)GlcNAc(b1-6)]Man(a1-6)[GlcNAc(b1-3)Gal(b1-4)GlcNAc(b1-3)Gal(b1-4)GlcNAc(b1-2)Man(a1-3)]Man(b1-4)GlcNAc(b1-4)[Fuc(a1-6)]GlcNAc
# Method in brief: as §1
# [16] = target: GlcNAc(b1-3)Gal(b1-4)GlcNAc(b1-3)Gal(b1-4)GlcNAc(b1-3)Gal(b1-4)GlcNAc(b1-2)Man(a1-3)[GlcNAc(b1-3)Gal(b1-4)GlcNAc(b1-3)Gal(b1-4)GlcNAc(b1-3)Gal(b1-4)GlcNAc(b1-2)Man(a1-6)]Man(b1-4)GlcNAc(b1-4)GlcNAc
# Method in brief: as §1
# [17] = target: GlcNAc(b1-3)Gal(b1-4)GlcNAc(b1-3)Gal(b1-4)GlcNAc(b1-3)Gal(b1-4)GlcNAc(b1-2)Man(a1-3)[GlcNAc(b1-3)Gal(b1-4)GlcNAc(b1-3)Gal(b1-4)GlcNAc(b1-3)Gal(b1-4)GlcNAc(b1-2)Man(a1-6)]Man(b1-4)GlcNAc(b1-4)[Fuc(a1-6)]GlcNAc
# Method in brief: as §1
# [18] = target: GlcNAc(b1-3)Gal(b1-4)GlcNAc(b1-3)Gal(b1-4)GlcNAc(b1-3)Gal(b1-4)GlcNAc(b1-2)[GlcNAc(b1-3)Gal(b1-4)GlcNAc(b1-3)Gal(b1-4)GlcNAc(b1-3)Gal(b1-4)GlcNAc(b1-6)]Man(a1-6)[GlcNAc(b1-3)Gal(b1-4)GlcNAc(b1-3)Gal(b1-4)GlcNAc(b1-3)Gal(b1-4)GlcNAc(b1-2)Man(a1-3)]Man(b1-4)GlcNAc(b1-4)[Fuc(a1-6)]GlcNAc
# Method in brief: as §1
# [19] = target: GlcNAc(b1-3)Gal(b1-4)GlcNAc(b1-3)Gal(b1-4)GlcNAc(b1-3)Gal(b1-4)GlcNAc(b1-3)Gal(b1-4)GlcNAc(b1-2)Man(a1-3)[GlcNAc(b1-3)Gal(b1-4)GlcNAc(b1-3)Gal(b1-4)GlcNAc(b1-3)Gal(b1-4)GlcNAc(b1-3)Gal(b1-4)GlcNAc(b1-2)Man(a1-6)]Man(b1-4)GlcNAc(b1-4)GlcNAc
# Method in brief: as §1
# [20] = target: GlcNAc(b1-3)Gal(b1-4)GlcNAc(b1-3)Gal(b1-4)GlcNAc(b1-3)Gal(b1-4)GlcNAc(b1-3)Gal(b1-4)GlcNAc(b1-2)Man(a1-3)[GlcNAc(b1-3)Gal(b1-4)GlcNAc(b1-3)Gal(b1-4)GlcNAc(b1-3)Gal(b1-4)GlcNAc(b1-3)Gal(b1-4)GlcNAc(b1-2)Man(a1-6)]Man(b1-4)GlcNAc(b1-4)[Fuc(a1-6)]GlcNAc
# Method in brief: as §1
# [21] = target: GlcNAc(b1-3)Gal(b1-4)GlcNAc(b1-3)Gal(b1-4)GlcNAc(b1-3)Gal(b1-4)GlcNAc(b1-3)Gal(b1-4)GlcNAc(b1-2)[GlcNAc(b1-3)Gal(b1-4)GlcNAc(b1-3)Gal(b1-4)GlcNAc(b1-3)Gal(b1-4)GlcNAc(b1-3)Gal(b1-4)GlcNAc(b1-6)]Man(a1-6)[GlcNAc(b1-3)Gal(b1-4)GlcNAc(b1-3)Gal(b1-4)GlcNAc(b1-3)Gal(b1-4)GlcNAc(b1-3)Gal(b1-4)GlcNAc(b1-2)Man(a1-3)]Man(b1-4)GlcNAc(b1-4)[Fuc(a1-6)]GlcNAc
# Method in brief: as §1
# [22] = target: GlcNAc(b1-3)Gal(b1-4)GlcNAc(b1-3)Gal(b1-4)GlcNAc(b1-3)GalNAc
# Method in brief: as §1
# [23] = target: GlcNAc(b1-3)Gal(b1-4)GlcNAc(b1-3)GalNAc
# Method in brief: as §1
# [24] = target: GlcNAc(b1-3)Gal(b1-4)GlcNAc(b1-3)[GlcNAc(b1-3)Gal(b1-4)GlcNAc(b1-3)]GalNAc
# Method in brief: as §1
# [25] = target: GlcNAc(b1-3)Gal(b1-4)GlcNAc(b1-6)[Gal(b1-3)]GalNAc
# Method in brief: as §1
# [26] = target: GlcNAc(b1-3)Gal(b1-4)GlcNAc(b1-6)[GlcNAc(b1-3)Gal(b1-3)]GalNAc
# Method in brief: as §1
# [27] = target: GlcNAc(b1-3)Gal(b1-4)GlcNAc(b1-6)[GlcNAc(b1-3)]Gal(b1-4)GlcNAc
# Method in brief: as §1
# GlcNAc(b1-3)GalNAc = target: GlcNAc(b1-3)GalNAc
# Method in brief: as §1
# GlcNAc(b1-3)Man = target: GlcNAc(b1-3)Man
# Method in brief: as §1
# [28] = target: GlcNAc(b1-3)[GlcNAc(b1-4)][GlcNAc(b1-6)]GlcNAc
# Method in brief: as §1
# [29] = target: GlcNAc(b1-3)[GlcNAc(b1-6)]Gal(b1-4)GlcNAc
# Method in brief: as §1
# [30] = target: GlcNAc(b1-3)[GlcNAc(b1-6)]GalNAc
# Method in brief: as §1
# [31] = target: GlcNAc(b1-4)Gal(b1-4)GlcNAc
# Method in brief: as §1
# GlcNAc(b1-4)GlcNAc = target: GlcNAc(b1-4)GlcNAc
# Method in brief: as §1
# [32] = target: GlcNAc(b1-4)GlcNAc(b1-4)GlcNAc
# Method in brief: as §1
binder,measurement,setting,value
DC-ASGPR S+GEE (Homo sapiens) (protein) MTRTYENFQYLENKVKVQGFKNGPLPLQSLLQRLRSGPCHLLLSLGLGLLLLVIICVVGFQNSKFQRDLVTLRTDFSNFTSNTVAEIQALTSQGSSLEETIASLKAEVEGFKQERQAVHSEMLLRVQQLVQDLKKLTCQVATINNNGEEASTEGTCCPVNWVEHQDSCYWFSHSGMSWAEAEKYCQLKNAHLVVINSREEQNFVQKYLGSAYTWMGLSDPEGAWKWVDGTDYATGFQNWKPGQPDDWQGHGLGGGEDCAHFHPDGRWNDDVCQRPYHWVCEAGLGQTSQESH,glycan array binding signal (z-score),[1],-0.304
same,glycan array binding signal (z-score),[2],-0.324
same,glycan array binding signal (z-score),[3],-0.308
same,glycan array binding signal (z-score),[4],0.042
same,glycan array binding signal (z-score),[5],-0.082
same,glycan array binding signal (z-score),[6],-0.317
same,glycan array binding signal (z-score),GlcNAc(b1-3)Fuc,-0.328
same,glycan array binding signal (z-score),GlcNAc(b1-3)Gal,-0.293
same,glycan array binding signal (z-score),[7],-0.318
same,glycan array binding signal (z-score),GlcNAc(b1-3)Gal(b1-4)Glc,-0.302
same,glycan array binding signal (z-score),[8],-0.326
same,glycan array binding signal (z-score),[9],-0.336
same,glycan array binding signal (z-score),[10],-0.254
same,glycan array binding signal (z-score),[11],-0.08
same,glycan array binding signal (z-score),[12],-0.288
same,glycan array binding signal (z-score),[13],-0.304
same,glycan array binding signal (z-score),[14],-0.248
same,glycan array binding signal (z-score),[15],-0.113
same,glycan array binding signal (z-score),[16],-0.276
same,glycan array binding signal (z-score),[17],-0.192
same,glycan array binding signal (z-score),[18],-0.176
same,glycan array binding signal (z-score),[19],-0.159
same,glycan array binding signal (z-score),[20],0.044
same,glycan array binding signal (z-score),[21],-0.234
same,glycan array binding signal (z-score),[22],-0.297
same,glycan array binding signal (z-score),[23],-0.533
same,glycan array binding signal (z-score),[24],-0.484
same,glycan array binding signal (z-score),[25],0.056
same,glycan array binding signal (z-score),[26],-0.32
same,glycan array binding signal (z-score),[27],-0.301
same,glycan array binding signal (z-score),GlcNAc(b1-3)GalNAc,-0.312
same,glycan array binding signal (z-score),GlcNAc(b1-3)Man,-0.36
same,glycan array binding signal (z-score),[28],-0.332
same,glycan array binding signal (z-score),[29],-0.307
same,glycan array binding signal (z-score),[30],-0.291
same,glycan array binding signal (z-score),[31],-0.338
same,glycan array binding signal (z-score),GlcNAc(b1-4)GlcNAc,-0.284
same,glycan array binding signal (z-score),[32],-0.357

# Reference: the supplement of paper PMC8728848
